# According to paper PMC12040169 (PLOS Biology, 2025):
# This is one part of the list.
# Tested on: T1, C. trachomatis L2/434/Bu expressing GFP (CTL2-GFP)
# T1 construct: L2/434/Bu GFP intracellular growth in HeLa cells
# Set-up: species or system HeLa; C. trachomatis total inclusion area by high-content imaging, normalised to DMSO
# Conditions: total inclusion area; 28.5 h, 10 µM; inhibitor
# Method in brief: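 Following bulk GFP and resorufin fluorescence reads, infected cells were fixed, Hoechst-stained and imaged on a high-content platform. Inclusion total area and number per well served as growth proxies; nuclei counts indicated host viability. MICs were derived as for the fluorescence assay.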
row,Structure (SMILES),% of control remaining
1,O=C(CCCn1ccnc1)Nc1ccc(OC2CCCC2)cc1 [CBK281986],83.1431
2,C/C(=N\NC(=O)c1nc(-c2ccccc2)cc(-c2ccccc2)n1)c1ccc(F)cc1 [CBK262826],100.611
3,COc1ccccc1OCC(=O)Nc1cnc(-c2cccc(C)c2)c(-c2cccnc2)n1 [CBK037112],119.908
4,COc1cccc(-n2ncc(-c3cccnc3)n2)c1 [CBK112813],96.1864
5,CSc1cccc(NC(=O)c2sc3nc(C)cc(C)c3c2N)c1 [CBK115349],100.085
6,O=C(Cc1n[nH]c(=O)[nH]c1=O)N/N=C/c1ccc(C(=O)O)cc1 [CBK263525],91.6744
7,CC(O)Cc1nnc(SCC(=O)c2ccc([N+](=O)[O-])cc2)n1-c1ccccc1 (stereo not shown) [CBK267389],101.636
8,COc1cccc(C(NC(=O)Cc2ccc(-n3nnnc3C)cc2)c2ccccc2)c1 (stereo not shown) [CBK285605],97.0375
9,CC(=O)Nc1cccc(NC(=O)c2ccc(CN3CCc4ccccc4C3)cc2)c1 [CBK269534],95.3784
10,CC(C)CCC(=O)Nc1ccc(N2CCN(C(=O)c3ccccc3C(F)(F)F)CC2)nn1 [CBK138629],77.407
11,COc1ccc(OC)c(S(=O)(=O)N2CCN(C(=O)c3cc(-c4ccncc4)nc4c(C)cc(C)cc34)CC2)c1 [CBK267778],102.396
12,O=S(=O)(NCCc1c[nH]c2ccccc12)c1cccc2nsnc12 [CBK057456],103.657
13,COc1ccc(C2CC(c3ccc(NS(C)(=O)=O)cc3)=NN2C(=O)CCCC(=O)O)cc1 (stereo not shown) [CBK297780],108.483
14,COc1ccc(-c2cnc(NCC3CC3)c(C(=O)NCCc3c[nH]c4ccccc34)c2)cc1 [CBK076349],99.9973
15,CC1CCc2n[nH]c(C(=O)NCCCc3ccccn3)c2C1 (stereo not shown) [CBK283194],104.186
16,Cc1ccc(Sc2ncccc2C(=O)Nc2ccnn2Cc2cccnc2)cc1C [CBK296980],91.2246
17,Cc1cc(C)nc(NC2=NCCN2C(=S)Nc2ccccc2)n1 [CBK266481],99.4632
18,CC(=O)NCCCCCC(=O)N1CCN(c2ccc(C(F)(F)F)cc2)CC1 [CBK091312],91.2336
19,FC(F)(F)c1cc(-c2cn3ccnc3c(N3CCOCC3)n2)cc(C(F)(F)F)c1 [CBK066396],67.2574
20,O=C(NC(/C=C/c1ccccc1)c1cc([N+](=O)[O-])c2cccnc2c1O)C1CCCCC1 (stereo not shown) [CBK265333],89.3814
21,Cc1cc(C(=O)Nc2ccccc2N2CCOCC2)c(C)o1 [CBK057243],67.2975
22,Cc1ccccc1CN1CCC(NC(=O)Cn2cc(Br)ccc2=O)CC1 [CBK305716],131.871
23,Cc1nn(Cc2c(F)cccc2Cl)c(C)c1NC(=O)CCCC(=O)O [CBK286838],68.5598
24,Nc1ncc(-c2cccc3ccccc23)nc1NCc1ccccc1 [CBK063565],62.3406
25,O=C(Cn1cc(C(=O)NCc2ccc(F)cc2)ccc1=O)NC1(c2ccccc2)CCCC1 [CBK286081],90.3975

row,Structure (SMILES),% of control remaining
1,Cc1c2c(nn1C)CSc1ccccc1C2=O [CBK006517],75.7436
2,O=C(Nc1ccc(Cl)cc1)N1CCCCC1CO (stereo not shown) [CBK156179],93.1296
3,CC1(C)O[C@@H]2O[C@@H](C(O)CNC(=O)c3ccccc3)[C@@H](O)[C@@H]2O1 (stereo partly shown) [CBK008736],59.8386
4,CCN(CC)CCn1c2ccccc2c2nc3cc(C(=O)O)ccc3nc21 [CBK297496],71.6081
5,COC(=O)n1c(=O)oc2ccc(Cl)cc21 [CBK026774],39.2593
6,Cc1nn(Cc2cccc(C(=O)NCc3ccccn3)c2)c(C)c1Cl [CBK265755],123.617
7,CSCCCNC(=O)N(CCC#N)C1CCCCC1 [CBK156348],91.8595
8,CCN1CCCC1CNC(=O)c1cc(Br)cnc1N(C)C(C)=O (stereo not shown) [CBK076524],112.898
9,O=C(CCOc1ccccc1)Nc1cc(N2CCNCC2)ncn1 [CBK004225T],77.6012
10,CC(C)Oc1ccc(C(=O)N2CCC(COc3ccc(-c4ccc(S(C)(=O)=O)cc4)cn3)CC2)nc1 [CBK161989],48.908
11,Nc1nnc(SCc2nc3ccccc3n2Cc2ccccc2)s1 [CBK264649],109.546
12,NC(=O)C1CCN([C@H]2[C@@H]3OC[C@@H](O3)[C@@H](NCc3ccc(F)cc3)[C@@H]2O)CC1 [CBK288830],90.6484
13,CCOC(=O)N1C(=O)c2ccccc2NC1(C(F)(F)F)C(F)(F)F [CBK025725],73.6609
14,COc1cccc(-c2cnc(N)c(N3CCN(CCN(C)C)CC3)n2)c1 [CBK063561],110.482
15,CC(C)CCc1ccc(C#N)c(=O)[nH]1 [CBK016227],103.281
16,COc1cc(-c2cncc(N3CCCC3CO)n2)cc(OC)c1OC (stereo not shown) [CBK065389],136.863
17,COc1ccc([N+](=O)[O-])cc1-c1ccc(/C=N/NC(=O)Cn2nnnc2N)o1 [CBK262505],109.939
18,CC(C)c1ccc(S(=O)(=O)NC(CC(=O)O)c2ccccc2)cc1 (stereo not shown) [CBK266217],118.05
19,CN1CCN(c2nc(NS(=O)(=O)c3ccc(OC(F)(F)F)cc3)cc3ccccc23)CC1 [CBK002978C],95.701
20,CN(C)S(=O)(=O)c1ccc(C(=O)C2=C(O)C(=O)N(Cc3cccnc3)C2c2ccc(F)cc2)cc1 (stereo not shown) [CBK264715],114.766
21,C=CCn1c(Cc2csc(NC(=O)c3ccc(OC(F)F)cc3)n2)n[nH]c1=S [CBK295338],109.716
22,Cc1nc2c(c(=O)[nH]1)CC[C@@H]1CN(C(=O)c3ccccc3F)C[C@H]21 [CBK284410],74.9147
23,O=C(NCc1ccccn1)c1cc2cc(F)ccc2[nH]1 [CBK107276],81.9323
24,O=C1NC2(CCc3ccccc31)CCN(C(=O)c1ccc(F)cc1)C2 (stereo not shown) [CBK285308],88.9659
